Laboratory results published in publication PMC12040169 (PLOS Biology, 2025).
The list shows a part of the results.

What follows are molecules tested on T1, C. trachomatis L2/434/Bu expressing GFP (CTL2-GFP). Conditions: total inclusion area; 28.5 h, 10 µM; inhibitor.
T1 construct: L2/434/Bu GFP intracellular growth in HeLa cells
Set-up: species or system HeLa; C. trachomatis total inclusion area by high-content imaging, normalised to DMSO
Method in brief: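 After bulk GFP and resorufin fluorescence reads, cells were fixed, stained with Hoechst and imaged by high-content microscopy. Inclusion area and number (GFP) stood in for chlamydial growth, nuclei count (Hoechst) for host cell viability. MICs were derived as for the bulk readout.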

| Compound | % of control remaining |
| --- | --- |
| O=C(CSc1nnc2ccc3ccccc3n12)Nc1nsc(-c2ccc(Cl)cc2)n1 [CBK266460] | 94.7644 |
| CCc1nnc(NS(=O)(=O)c2c(C)nn(C)c2Cl)s1 [CBK062180] | 93.0941 |
| O=C(O)C(c1c[nH]c2ccccc12)N1CCOCC1 (stereo not shown) [CBK286739] | 93.3128 |
| COc1ccc(-c2ccc(=O)n(CCN)n2)cc1 [CBK270130C] | 103.826 |
| CCOc1cc(OCC)cc(C(=O)N2CCC3(CC2)CC(=O)c2cc(CC)ccc2O3)c1 [CBK168009] | 117.396 |
| CN(C(=O)c1c[nH]nc1-c1ccc(CNC(=O)Cc2ccc(F)cc2)cc1)c1ccccc1 [CBK285599] | 104.106 |
| N#C/C(=C\c1ccc(Oc2ccc(C(F)(F)F)cc2[N+](=O)[O-])cc1)c1nc2ccccc2[nH]1 [CBK263878] | 84.0345 |
| Cc1ccc(Cc2cnc(NC(=O)CN3CCCCC3)s2)cc1Cl [CBK307299] | 103.011 |
| CC(CC(=O)O)CC(=O)NC1CCN(Cc2ccccc2)CC1 (stereo not shown) [CBK287042] | 86.4402 |
| O=c1[nH]c(=O)n([C@H]2C[C@@H](O)[C@@H](CO)O2)cc1O [CBK201317] | 95.5866 |
| CCN1CCN(c2ccc(C(=O)OC)cc2NC(=O)c2ccc(C#N)cc2F)CC1 [CBK270171] | 98.6969 |
| CC1CCN(Cc2ccc(-c3cn(CC(=O)NCc4ccc(Br)cc4)cn3)cc2)CC1 [CBK165969] | 71.4782 |
| O=C(CCCN[C@H]1CC[C@](O)(c2ccc(F)cc2)CC1)c1ccc(F)cc1 [CBK023258C] | 58.7522 |
| O=S(=O)(Nc1cccnc1N1CCOCC1)c1cc(C(F)(F)F)cc(C(F)(F)F)c1 [CBK062306] | 118.849 |
| CCn1cc(C(=O)O)c(=O)c2cnc(N3CCN(C(=S)Nc4cc5oc6ccccc6c5cc4OC)CC3)nc21 [CBK267929] | 105.26 |
| COc1ccc(C=C2CCCC3C2=NN(C(=O)CCC(=O)O)C3c2ccc(OC)c(OC)c2)cc1OC (stereo not shown) [CBK296070] | 90.7885 |
| O=C(CSc1nnc(-c2ccc(Cl)cc2)n1-c1ccccc1)N/N=C/c1ccccn1 [CBK263001] | 102.121 |
| O=c1cc(CN2CCc3ccccc3C2)[nH]c(=O)[nH]1 [CBK126401] | 90.9439 |
| O=C(CSc1nccn1-c1ccccc1)Nc1ccc(F)cc1 [CBK287399] | 110.248 |
| O=C(CSc1nnc(-c2ccc(Cl)cc2Cl)o1)c1ccc2c(c1)OCCO2 [CBK268839] | 96.6045 |
| CCOC(=O)N1CCN(C(=O)c2ccc(CS(=O)(=O)c3ccc(C)cc3)cc2)CC1 [CBK268659] | 133.732 |
| c1ccc(-c2cc(CC3(NCc4c[nH]c5ccccc45)COC3)no2)nc1 [CBK289250] | 92.6552 |
| CN1CCN(C(=O)c2[nH]c3ccccc3c2NS(=O)(=O)/C=C/c2ccccc2)CC1 [CBK050047] | 63.8696 |
| CCCC1=NNC(=O)/C1=C\c1cnc[nH]1 [CBK067767] | 90.6957 |
| CS(=O)(=O)N1CCCc2cc(-c3csc(N)n3)ccc21 [CBK305859] | 5.674 |

| Compound | % of control remaining |
| --- | --- |
| CCC1CN(Cc2ccccc2)CCN1c1cncc(Cl)n1 (stereo not shown) [CBK003645] | 92.1542 |
| CC(C)C(=O)N1CCC(n2nc(C3CC3)ccc2=O)CC1 [CBK282351] | 61.3273 |
| CCc1nc2ccc(C(=O)Nc3ccc(Cl)c(Cl)c3)cn2c1N(CC)CCOC [CBK146042] | 97.1437 |
| COc1cc(Nc2cncc(-c3cccnc3)n2)cc(OC)c1OC [CBK065201] | 146.506 |
| CN(CCN1CCCCC1)C(=O)CCc1cn(C)c2ccccc12 [CBK281906] | 83.5345 |
| O=C(C1CCCC1)N1CC(n2nc(-c3ccccc3)ccc2=O)C1 [CBK284617] | 106.88 |
| Cc1ccc2[nH]c([C@H]3CCN(C(=O)NC(C)C)C3)nc2c1 [CBK289375] | 106.782 |
| O=C(COc1ccc(Br)cc1)Nc1ccc(Cl)c(-c2nc3ccccc3[nH]2)c1 [CBK263075] | 98.8914 |
| COCCNc1nc(-c2ccc([N+](=O)[O-])cc2)nc2ccccc12 [CBK264819] | 106.578 |
| Cc1nn(C)c(C)c1OCC(=O)Nc1nc2c(cc1C#N)CCC2 [CBK306371] | 63.0545 |
| NC(=O)CN1CC2(CCN(CCCCC3NC(=O)NC3=O)CC2)c2ccccc21 (stereo not shown) [CBK126799] | 93.0519 |
| CC(=O)Nc1ccc(CNC(=O)c2ccc[nH]2)cc1 [CBK304538] | 83.4403 |
| O=C(O)c1cccc(NS(=O)(=O)c2cccnc2)c1 [CBK155700] | 80.9658 |
| Cn1cc(CNCC2CCN(c3ccccc3)C2)c(-c2cccnc2)n1 (stereo not shown) [CBK304155] | 98.0932 |
| CC(=O)N1CCC2(CCCC[C@H]3CN(C(=O)C(C)C)CC[C@@H]3NC(=O)CNC2=O)CC1 [CBK292121] | 112.122 |
| c1coc(CNc2nccnc2-c2cccs2)c1 [CBK036618] | 88.6758 |
| O=C(c1ccccc1F)N1C[C@H](c2ccsc2)[C@H]2CN(Cc3ccccc3F)CC[C@H]21 [CBK285656] | 58.8969 |
| Cc1ccc(OC(C)C(=O)Nc2ccc(S(=O)(=O)Nc3cc(C)on3)cc2)cc1 (stereo not shown) [CBK268757] | 77.0682 |
| COC(=O)c1c(NC(=S)N2CCN(Cc3c(C)nn(C)c3C)CC2)sc2c1CCC(C)C2 (stereo not shown) [CBK267103] | 107.215 |
| O=C(Cn1nc(N2CCSCC2)ccc1=O)Nc1ccccc1 [CBK307623] | 112.293 |
| COc1cc(NC(=O)c2ccc3c(c2)C(=O)N(c2ccccc2OC)C3=O)c(C(=O)O)cc1OC [CBK262787] | 117.636 |
| COCCNc1nc2c(c(N3CCCCCC3)n1)CCNCC2 [CBK306724] | 1.407 |
| O=C(c1cc(-c2ccncc2)nc2ccc(Cl)cc12)N1CCN(CCc2ccccc2)CC1 [CBK267719] | 95.6506 |
| CC1CCCC(C)N1CC(=O)Nc1ccccc1Oc1ccccc1 (stereo not shown) [CBK015824C] | 61.5481 |
